We go through 14 molecules from paper PMC12136788.

The labels stand for the following.
T1: UNK ZnF1-3 (human, UniProt Q9C0B0 31-174)
T1 sequence: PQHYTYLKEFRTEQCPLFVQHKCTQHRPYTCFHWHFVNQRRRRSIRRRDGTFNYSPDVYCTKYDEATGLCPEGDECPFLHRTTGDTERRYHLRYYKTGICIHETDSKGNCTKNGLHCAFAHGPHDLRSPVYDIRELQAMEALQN

B1: chr3:176768308:176768309:-_ENSG00000177565_ENST00000430069|hu_hu|FALSE|FALSE (ssRNA)
RNA: GGGAGUUCUACAGUCCGACGAUCACUAAGAUUCCAUAUUCUUGCUGUUGAGUCUCCAGACCCUGAUGCUAGGAGAUCACUAACAGGGUUCCAGGCACAGAUAAAAACUUCAGAUUCAUGGCCCCGCAACACAACAGCUUUAUUCAACAGAGGAUUGAGCAUCA
B2: chr7:140404665:140404666:+_ENSG00000090266_ENST00000247866|hu_hu|hu_hu_hu_mus_False|1_58 (ssRNA)
RNA: GGGAGUUCUACAGUCCGACGAUCUGCUCCUACUCGUCCAGAGAGUUUACAGUGUCAGUCCUCGUCAUCAGGAGGGAUACCUAAUUCUUCAUCUGUCCACUGUGAAGGAUCUGGAUAUGAAAAGUGACCCAGCACAGCUUCUGACAACAGAGGAUUGAGCAUCA
B3: chr2:217001886:217001887:+_ENSG00000079246_ENST00000392132|hu_hu|FALSE|FALSE (ssRNA)
RNA: GGGAGUUCUACAGUCCGACGAUCAUGAGGAAAAGCCACGCCGACUUGAGGAUUAGCUCUUUUGUCAUAAGCAUAUCGAACUAUGGCCACCAUGUCUAAGUCAUCCAAAGCAUGAAUCAGGGAGGAAAGUGCAACUGCAGCUGCCAACAGAGGAUUGAGCAUCA
B4: 65225615_65225735_80_5pUTR_ENSMUSG00000025950_ENSMUST00000097709|mouse|control|control (ssRNA)
RNA: GGGAGUUCUACAGUCCGACGAUCUCAGCAUCUGCCACAACCUUCGCUCGGAAGCCCAGCGGCAGGGUCAAGGCUGUUUAACUCUUCCCGGCUUUGUCUCCUCCCAGGCCCCACCCCCUCAGCCCACCUCCCGAAGCCCCGCCCCAACAGAGGAUUGAGCAUCA
B5: chr3:10168198:10168199:+_ENSG00000254999_ENST00000256463|hu_mus|motif|central (ssRNA)
RNA: GGGAGUUCUACAGUCCGACGAUCCACCUCAAACACAUUGACAAGUAGUUCCGAACAAUGUUACUGAAAAGGGAAAAAGCCGGAUGCUGUUUCCAAGAGGUCCCCUGGACUGCUUGCUCCCCCAUGCCACGUCAUACCCCAGGGCAACAGAGGAUUGAGCAUCA
B6: chrX:140365796:140365797:-_ENSMUSG00000031285_ENSMUST00000033642|mus_mus|mus_mus_mus_hu_False|78_108 (ssRNA)
RNA: GGGAGUUCUACAGUCCGACGAUCCUUCUCAUUACUUAGUGCCUGCAAGGUUCUGGUUCUGUAGAAGCUACAGUGGGCGCUGUGAGUGGGGCUAGGCAACCCAUUCAUCCGGGAGCCUCGCAUGUUCCUGGAUGUCUUAUCUCUCAACAGAGGAUUGAGCAUCA
B7: chr2:156005782:156005783:-_ENSMUSG00000027620_ENSMUST00000109587|mus_hu|motif|central (ssRNA)
RNA: GGGAGUUCUACAGUCCGACGAUCGCGGAACCGCCCAGCCCGAAUAUCGGGUUCCAAGGACGGCUAGGCCCGAGAGAAUCGGAAAAAAACAAUGGAAUUAGAGAAGCCCACGCGGGAGAGCAGGACGGCGGCUUCGGCAGCUCACAACAGAGGAUUGAGCAUCA
B8: 102312815_102312935_6131_3pUTR_ENSG00000166135_ENST00000299163|human|control|control (ssRNA)
RNA: GGGAGUUCUACAGUCCGACGAUCGACAGCUCAGUUCUUCCACACCAGCUUCCCGGGCCUGACAUCAUUCUCACAAAGUCUCCUCAGCAAUCCCUGCACCUCUCCCCUCAACUGGCCCUUGUAGGUGCCCACCCCUAACCCACCCAACAGAGGAUUGAGCAUCA
B9: chr2:42543136:42543137:+_ENSG00000143924_ENST00000318522|hu_hu|motif|central (ssRNA)
RNA: GGGAGUUCUACAGUCCGACGAUCAUCUAUUGAGUAGCGCAUCACAGAGAGCUGUUCAUUCCCGUCUGUGUGGAUAGAAACGGGAUCUCUGGUUUCUGCAUCCAGAACAAACCACCUGCCUGAGUGCGUUCCUAUGGCCACCACCAACAGAGGAUUGAGCAUCA
B10: chr9:107926503:107926504:+_ENSMUSG00000032594_ENSMUST00000035214|mus_mus|motif|central (ssRNA)
RNA: GGGAGUUCUACAGUCCGACGAUCGGGGGCCGGUUGCACACUGAUGGCAGACGAUGCAGCACAUGGACCACAAAAGGAGAGCGGAGUUGAUCCUGGCUAGUGGGAGGCCAAUGGUCACAGUCUGCUUAGUUUACUGUUCUGUCCCAACAGAGGAUUGAGCAUCA
B11: chrX:35777509:35777510:-_ENSMUSG00000016534_ENSMUST00000061755|mus_mus|motif|central (ssRNA)
RNA: GGGAGUUCUACAGUCCGACGAUCCUGUCCUUUUGUCACAUUAAAAGGUUGCACCUUUAGGUUAAAGGUGUUGAUCUGAAACGCUCGGGACACAGAAAGCACCUGCUCUUUGUUGCACAUAUAAGAACUUCCCAGAGGGGCAUCCAACAGAGGAUUGAGCAUCA
B12: 48279288_48279408_581_CDS_ENSMUSG00000038143_ENSMUST00000110367|mouse|control|control (ssRNA)
RNA: GGGAGUUCUACAGUCCGACGAUCCCUCUCGUCCAAGUGGUACCACUUACUGUUAGUUCUUAUGAGGGAGGGAGUAAUGAAAUAAGUCUGUGGGGUCACAAUGAAAUAGCCAUCCGGAGUCGGAUAGAUUUUCCUCUCCCGUACCAACAGAGGAUUGAGCAUCA
B13: chr6:41757443:41757444:+_ENSG00000214736_ENST00000398881|hu_mus|hu_hu_hu_mus_False|38_48 (ssRNA)
RNA: GGGAGUUCUACAGUCCGACGAUCGAACCGUGCAGAGGCAACAUCUCAGCCGACACUGGGGGAUGGGGGGGCAGUGGGGGGGGGUUCAGGGAAGGGGAAGAAAAGUGCUUCAGCUGCCACUCAGGUAGGAUCUUGUGGUCACAGCAACAGAGGAUUGAGCAUCA
B14: 43591265_43591385_420_5pUTR_ENSMUSG00000028467_ENSMUST00000030189|mouse|control|control (ssRNA)
RNA: GGGAGUUCUACAGUCCGACGAUCUCUGACAGGUUUCUGACGUUUCAAAACGCUGAUGCCAGUUGCAGUUAGGUGCAGUCCGGGAGGGCCCGAUGCUGGGGAAAGCCGUGGGACGUUGGUAUCUGGGUAAAGUCAGAGAGCUCCCAACAGAGGAUUGAGCAUCA

The list shows a part of the results.

The test concerns the target T1, UNK ZnF1-3. Briefly: nsRBNS (natural sequence RNA bind-n-seq); RBNS binding buffer (assumed for nsRBNS): 25 mM Tris pH 7.5, 150 mM KCl, 3 mM MgCl2, 0.01% Triton X-100, 500 ug/ml BSA, 20 U/ml SUPERase-In, 4 C; UNK is unkempt and MSI1 is Musashi-1; names of the RNAs are library labels; protein concentration not given here; high values mean tight binding.
On to B1, for which the binding signal stood at 0.994 enrichment R.
Turning to B2, the binding signal was 1.08 enrichment R.
On to B3, for which the binding signal came to 1.82 enrichment R.
Take B4: the binding signal was found to be 1.25 enrichment R.
For B5 the value was 1.23 enrichment R; for B6, 0.538 enrichment R; for B7, 1.33 enrichment R.
In turn, B8 came in with a binding signal of 1.51 enrichment R.
For B9 the value was 0.989 enrichment R; for B10, 1.54 enrichment R.
Molecule B11 gave a binding signal of 1.38 enrichment R.
For B12 the value was 2.81 enrichment R; for B13, 1.49 enrichment R; for B14, 1.04 enrichment R.
